Test results published in PubChem BioAssay AID463173 (ICCB-Longwood Screening Facility, Harvard Medical School, 2010).
Hit rate of the full screen: of about 52,000 compounds, about 4,300 (8.3%) were called active. Rule as the data show it: active = survival mostly below about 52% (no sharp cut-off); inactive = mostly above about 56%. The list shows a part of the results.

These molecules were tested on DeltatarO mutant (assay: S. aureus survival, RN4220 and DeltatarO strains – OD600, teichoic acid synthesis inhibitors, primary screen (AID 463173)). Settings: S. aureus RN4220 wild type/DeltatarO growth, OD600, 18 h, active compounds read low, screened at 18.75 µg/mL (by protocol).
In the case of `COc1ccc(CCNc2nc3ccc(C)cc3n3cnnc23)cc1OC`, the survival was inactive: 92%.
With `CCOC(=O)CSc1nc(-c2ccc(F)cc2)cc(C(F)(F)F)c1C#N` the survival was inactive: 73%.
`CCc1ccccc1N1CC(c2nc3ccccc3n2CCOc2ccc(Cl)c(C)c2)CC1=O` (stereo not given) was tested, and the survival was active: 3%.
In the case of `Cc1ccn2cc(-c3cccc(NC(=O)CCC(=O)O)c3)nc2c1`, the survival was inactive: 75%.
`CCNc1nc(NC(C)(C)C)nc(Oc2ccc(=O)n(-c3ccccc3)n2)n1` was tested, and the survival was inactive: 60%.
For `CCn1c(C(=O)N2CCC(C(=O)N3CCN(c4ccc(OC)cc4)CC3)CC2)cc2sccc21`, the survival was active: 49%.
With `COc1ccc(Cl)cc1N=C1NC(=O)CC(C(=O)Nc2ccccc2C(F)(F)F)S1` (stereo not given) the survival was inactive: 69%.
With `Cc1cc(C)cc(NC(=O)C(CC(C)C)NC(=O)C2CCCCC2)c1` (stereo not given) the survival was inactive: 71%.
With `CN(C)c1ccc(C(=O)Nc2c(C(=O)NC(C)(C)C)oc3ccccc23)cc1` the survival was inactive: 57%.
In the case of `CC(C)Oc1ccc(CNC(=O)c2ccc3nc(C(C)C)oc3c2)cc1`, the survival was inactive: 113%.
For `COc1ccc(-c2nc(Cn3c(=O)cc(-c4ccccc4)c4c(C)nn(C)c43)c(C)o2)cc1OC`, the survival was inactive: 73%.
`CC1CCN(S(=O)(=O)c2ccc3c(ccc(=O)n3CC(=O)NCc3ccc(Cl)cc3)c2)CC1` was tested, and the survival was inactive: 75%.
With `CC(=O)c1cccc(NC(=O)CCc2nc3cccnc3n2Cc2cccs2)c1` the survival was inactive: 70%.
`CC(=O)N1CCc2cc(Br)cc(S(=O)(=O)NCCc3ccc(Cl)cc3)c21` was tested, and the survival was active: 45%.
With `c1ccc(N2CCN(Cc3nnc(-c4ccc5c(c4)OCO5)o3)CC2)cc1` the survival was inactive: 90%.
With `CC(C)Oc1ccc(C(=O)NCc2cccnc2)cc1` the survival was inactive: 70%.
For `CCOC(=O)c1cc2c(=O)n3ccccc3nc2n(CCOC)c1=NC(=O)c1cc2ccccc2o1`, the survival was inactive: 58%.
For `COc1ccc(C2=NS(=O)(=O)N(C)C(C(=O)Nc3ccc(OC(F)(F)F)cc3)=C2)cc1`, the survival was active: 48%.
For `CN(Cc1ccccc1)S(=O)(=O)c1nnc(NC(=O)c2ccccc2Cl)s1`, the survival was active: 29%.
For `CN1C(=O)c2ccccc2N(C)C1c1cccs1` (stereo not given), the survival was inactive: 98%.
`Cc1nn(-c2ccc(N3CCCC3)nn2)c(C)c1CCC(=O)NCc1ccccc1` was tested, and the survival was inactive: 85%.
`COc1ccc(-c2nc3scc(CCNS(=O)(=O)c4c(C)cc(C)cc4C)n3n2)cc1OC` was tested, and the survival was inactive: 85%.
`CCc1nn2c(=O)cc(COC(=O)c3ccc4c(c3)OCO4)nc2s1` was tested, and the survival was inactive: 76%.
In the case of `O=C(NCCn1cc(SCc2ccccc2)c2ccccc21)c1cccs1`, the survival was active: 54%.
For `CCCc1cc(=O)[nH]c(Nc2ccccc2O)n1`, the survival was inactive: 67%.
For `CCN(C(=O)c1ccc(Br)cc1)c1ccccc1`, the survival was inactive: 77%.
For `Cc1cc(C)cc(C(=O)Nc2cccc(-c3nc4ncccc4o3)c2C)c1`, the survival was inactive: 75%.
`COc1ccccc1CNC(=O)CCCCn1c(=O)c2ccccc2n(Cc2ccccc2C)c1=O` was tested, and the survival was inactive: 90%.
With `CC(C)(C)C1CCc2c(sc(NC(=O)c3ccccc3F)c2C(=O)NCc2ccco2)C1` (stereo not given) the survival was inactive: 61%.
For `CC(=O)c1c(C)n(-c2ccc(Cl)cc2)c2ccc(OC(=O)COc3ccccc3)cc12`, the survival was inactive: 63%.
In the case of `COc1ccc(N2C(=O)CS(=O)(=O)C23C(=O)N(Cc2ccc(C)cc2)c2ccccc23)cc1Cl` (stereo not given), the survival was inactive: 80%.
For `O=C(NCc1ccc(F)cc1)c1ccc2c(c1)nnn2C1CCCC1`, the survival was inactive: 134%.
In the case of `CCOc1ccc(NC(=O)N2CCN(Cc3cc(=O)n4nc(-c5ccc(OC)cc5)sc4n3)CC2)cc1`, the survival was inactive: 90%.
For `Cc1c(NC(=O)c2cc(-c3ccc(Cl)cc3)on2)c(=O)n(-c2ccccc2)n1C`, the survival was inactive: 121%.
`CCOC(=O)c1[nH]c(C)c(CCC(=O)NCc2ccc(OC)cc2)c1C` was tested, and the survival was inactive: 99%.
`Cc1cccc(NC(=O)Cn2c(=O)ccc3cc(S(=O)(=O)N4CCCC4)ccc32)c1C` was tested, and the survival was inactive: 105%.
With `CC(=O)c1ccc(NC(=O)C2CCC(CNS(=O)(=O)c3cccs3)CC2)cc1` (stereo not given) the survival was inactive: 67%.
In the case of `COc1cccc(Cc2nc3ccccc3nc2SCC(=O)NCc2ccc(C)cc2)c1`, the survival was inactive: 76%.
With `COc1ccc(CCNC(=O)c2ccc3c(c2)nc2n3CCC(C)C2)cc1OC` (stereo not given) the survival was inactive: 84%.
`CCOC(=O)c1noc2nc(C)n(Cc3cccc(C#N)c3)c(=O)c12` was tested, and the survival was inactive: 87%.
With `COc1cccc(C(=O)NC(=S)NCc2ccco2)c1` the survival was inactive: 93%.
`CCN(C(=O)Cn1cnc2onc(-c3ccc(F)cc3)c2c1=O)c1cc(C)ccc1C` was tested, and the survival was inactive: 77%.
In the case of `CCn1c(C(=O)NCc2cc(Br)ccc2OC)cc2oc3ccccc3c21`, the survival was inactive: 67%.
For `CC1=CC(C)(C)N(C(=O)Cc2ccccc2)c2ccccc21`, the survival was inactive: 115%.
In the case of `Cc1cccc(CCNC(=O)CN(c2ccc(C(C)C)cc2)S(=O)(=O)c2c(C)nn(C)c2C)c1`, the survival was inactive: 68%.
For `Cc1ccc(NC(=O)N2CCN(c3cc(-c4noc(C)n4)ccc3C)CC2)c(C)c1`, the survival was inactive: 88%.
`Cc1ccccc1-c1nnc(SCC(=O)N(C)C2CCCCC2)o1` was tested, and the survival was inactive: 67%.
With `CCNC(=O)c1ccc(CSc2nc3ccncc3n2Cc2ccc(F)cc2)cc1` the survival was inactive: 91%.
With `O=C(CN1C(=O)CSC1=O)Nc1cccc(Cl)c1` the survival was inactive: 104%.
In the case of `COC(=O)C(C)n1cnc2sc3c(c2c1=O)CCCC3` (stereo not given), the survival was inactive: 92%.
In the case of `COc1ccc(-c2ccc(NS(=O)(=O)c3cccc(C)c3)cc2)nn1`, the survival was inactive: 75%.
With `COc1ccc(OCC(=O)NC2CC(=O)N(c3ccc4c(c3)OCCO4)C2)cc1` (stereo not given) the survival was inactive: 67%.
For `CCc1ccc(NS(=O)(=O)c2c(C)nc3sc(CC)nn3c2=O)cc1`, the survival was inactive: 72%.
`Cc1ccc(C)c(CN2C(=O)C3(c4ccccc42)N(c2ccc(Cl)cc2)C(=O)CS3(=O)=O)c1` (stereo not given) was tested, and the survival was inactive: 78%.
`COc1ccc(CCNC(=O)C2CCN(c3nc4ccccc4nc3C(F)(F)F)CC2)c(OC)c1` was tested, and the survival was inactive: 57%.
For `Cc1ccc(OCC(=O)Nc2nc(-c3ccc(Br)cc3)ns2)cc1C`, the survival was inactive: 110%.
`COc1ccc(CNc2nc3ccccc3c3nc(-c4ccccc4)nn23)cc1` was tested, and the survival was active: 35%.
For `O=C(O)c1ccc(NC(=S)N2CCCCC2)cc1`, the survival was inactive: 81%.
`Cc1ccccc1OCC(=O)Nc1ccc2nc(SCc3ccccc3)sc2c1` was tested, and the survival was inactive: 88%.
In the case of `CCc1ccccc1NC(=O)c1ccc(CN2C(=O)CCn3nc(C)cc32)cc1`, the survival was inactive: 83%.
`COCCNC(=O)C1CCN(c2nc3ccccc3nc2C(F)(F)F)CC1` was tested, and the survival was inactive: 105%.
For `COc1cc2c(cc1OC)n(Cc1ccc([N+](=O)[O-])cc1)c(=O)n1nc(-c3ccccc3)nc21`, the survival was inactive: 116%.
With `COc1cc2c(cc1OC)C(COc1ccc3c(C)cc(=O)oc3c1)N(C(=O)c1ccccc1F)CC2` (stereo not given) the survival was inactive: 50%.
With `CC(=O)N1c2ccccc2CC1C(=O)NCc1cccc(Cl)c1` (stereo not given) the survival was inactive: 94%.
`COc1ccc(-c2cc(C)no2)cc1S(=O)(=O)N1CCN(c2ccccc2F)CC1` was tested, and the survival was inactive: 102%.
With `Cc1cccc(NC(=O)CSc2nc(-c3ccccc3Cl)nc3c2Cc2c(CO)cnc(C)c2O3)c1C` the survival was inactive: 117%.
For `COc1ccc(CCNc2nc3c(-c4cccc(F)c4)nnn3c3ccccc23)cc1OC`, the survival was inactive: 60%.
With `CN1C(=O)C(Cc2ccccc2)NC1=S` (stereo not given) the survival was inactive: 77%.
For `CCOc1cccc(C2CC(=O)Nc3cc4c(cc32)OCCO4)c1` (stereo not given), the survival was inactive: 64%.
With `Cc1ccc(NC(=O)CSc2nnc3[nH]c(=O)cc(-c4ccccc4)n23)cc1Cl` the survival was inactive: 77%.
`COCCCNC(=O)c1cn(CCOC)c(=O)c2c1c1ccccc1n2C` was tested, and the survival was inactive: 96%.
With `Cc1cc(C)c2[nH]c(=O)c(CN(CC3CCCO3)C(=O)NC3CCCCC3)cc2c1` (stereo not given) the survival was inactive: 97%.
In the case of `Cc1ccccc1CNC(=O)CN1C(=O)CSc2ccc(S(=O)(=O)N(C)C)cc21`, the survival was inactive: 78%.
In the case of `COc1ccc(NC(=O)c2c(NC(=O)COc3ccccc3)sc3c2CCC(C)C3)cc1` (stereo not given), the survival was inactive: 120%.
With `O=C(Nc1ccccc1C(F)(F)F)c1ccc2oc(=O)c(S(=O)(=O)c3ccc(F)cc3)cc2c1` the survival was inactive: 89%.
For `O=C(NCCC1=CCCCC1)c1ccc2c(=O)n3nc(Nc4ccccc4)sc3nc2c1`, the survival was inactive: 87%.
In the case of `Cc1ccc2ncc(C(=O)N3CCN(c4ccccc4F)CC3)c(=O)n2c1`, the survival was inactive: 102%.
With `CCOC(=O)N1CCc2c(sc3c2c(=O)n(Cc2ccccc2)c(=O)n3Cc2ccccc2Cl)C1` the survival was inactive: 90%.
In the case of `Cc1ccc(S(=O)(=O)N(CC(=O)NCCc2ccc(Cl)cc2)c2ccccc2C)cc1`, the survival was active: 49%.
For `CCc1ccc(OCC(=O)N(Cc2ccc(C)o2)C2CCS(=O)(=O)C2)cc1` (stereo not given), the survival was inactive: 110%.
For `CCc1ccccc1NC(=O)N1CCc2c([nH]c3ccccc23)C1c1ccc(C)cc1` (stereo not given), the survival was inactive: 76%.
In the case of `COc1ccc(CCNC(=O)c2cnn(-c3ccc(F)cc3)c2C2CCN(C(=O)OC(C)(C)C)CC2)c(OC)c1`, the survival was inactive: 87%.
In the case of `Cc1ccc(CSc2oc(-c3cccs3)nc2S(=O)(=O)c2ccccc2)cc1`, the survival was inactive: 65%.
With `CC(=O)c1ccc(N2CCN(c3ncnc4c3nc3n4CCCC3)CC2)cc1` the survival was inactive: 75%.
`COc1ccc(CCNC(=O)Cc2c(C)c3c(cc(C)c4c(C)c(C)oc43)oc2=O)cc1` was tested, and the survival was inactive: 88%.
`O=C1CCCC/C1=N\Nc1ccc(N2CCCCC2)cc1` was tested, and the survival was inactive: 90%.
`COCCCNC(=O)c1ccc(-n2c(-c3ccccc3)cc3c2CCC(C)C3)cc1` (stereo not given) was tested, and the survival was inactive: 97%.
For `COc1cccc(N2CCN(C(=O)c3cccn3-c3nnc(N4CCCC4)s3)CC2)c1`, the survival was inactive: 92%.
With `Cc1cc(NC(=O)OC2CCCC2)ccc1NC(=O)OC1CCCCC1` the survival was inactive: 75%.
In the case of `Cc1ccnc(NC(=O)Cc2ccc(F)cc2)n1`, the survival was inactive: 101%.
